Results: PubChem BioAssay AID1030 (National Center for Advancing Translational Sciences (NCATS), 2008)
The whole screen tested about 220,000 compounds, of which about 16,000 (7.3%) were called active. The shares of active, inactive and inconclusive entries below differ from those in the screen. Calls come from the whole dose curve; as a rule, active = well fitted inhibition curve with a large enough effect (not every such curve was filed as active); inconclusive = small, poorly fitted or top-dose-only effect, or another doubt; inactive = no such curve, though single readings can be large or run the other way. No potency is given beside an inconclusive call; the fits are too rough.

Target: Aldehyde dehydrogenase 1A1 (Homo sapiens) (UniProt P00352)
Sequence of UniProt P00352 (P00352 whole entry, looked up): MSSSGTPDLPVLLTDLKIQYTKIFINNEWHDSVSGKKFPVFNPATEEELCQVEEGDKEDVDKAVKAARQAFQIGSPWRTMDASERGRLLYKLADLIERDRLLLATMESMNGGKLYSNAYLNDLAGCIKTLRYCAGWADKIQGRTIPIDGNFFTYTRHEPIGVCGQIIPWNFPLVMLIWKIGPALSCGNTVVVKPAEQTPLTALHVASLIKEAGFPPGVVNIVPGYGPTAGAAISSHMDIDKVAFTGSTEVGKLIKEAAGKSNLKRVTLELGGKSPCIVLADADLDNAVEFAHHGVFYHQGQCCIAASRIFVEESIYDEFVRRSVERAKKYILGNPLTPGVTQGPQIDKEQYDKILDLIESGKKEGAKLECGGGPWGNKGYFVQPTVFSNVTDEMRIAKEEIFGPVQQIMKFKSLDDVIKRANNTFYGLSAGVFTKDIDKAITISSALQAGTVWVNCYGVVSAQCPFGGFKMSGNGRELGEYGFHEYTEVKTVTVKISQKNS
Test: qHTS Assay for Inhibitors of Aldehyde Dehydrogenase 1 (ALDH1A1);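 for activity, negative = inhibition: plate controls were no enzyme wells and a reference inhibitor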
Conditions: Purified ALDH1A1, NADH fluorescence, propionaldehyde substrate; series mostly up to 75.3 µM
Potency is the fitted concentration of half-maximal effect; tags give direction and shape of the fitted curve.

| SMILES | Potency | activity, negative = inhibition |
| --- | --- | --- |
| CCOc1cc(CNCCc2c[nH]c3ccccc23)cc(Cl)c1OCC | inactive | – |
| CCCCn1c(NS(=O)(=O)c2ccccc2)c(C(=O)OCC)c2nc3ccccc3nc21 | inconclusive [inhibitor, partial curve] | – |
| COc1ccc(CCNCc2ccccn2)cc1OC | inactive | – |
| Nc1cccc2c(N)cccc12 | inconclusive [inhibitor, partial curve] | – |
| CCc1nc(N2CCNCC2)c(C#N)c2c1CSC(C)(C)C2 | inconclusive [inhibitor, single point] | – |
| CN1Cc2c(ccc3c2OCO3)C2C(O)Cc3cc4c(cc3C21)OCO4 (stereo not given) | inactive | – |
| O=C(c1ccccc1)N1CCC2(CC1)OCCO2 | inactive | – |
| CCCN1CCc2cccc3c2C1Cc1ccc(O)c(O)c1-3 (stereo not given) | inconclusive [inhibitor, partial curve] | – |
| CCn1nc(-c2cccs2)nc2c(=O)n(C)c(=O)nc1-2 | inconclusive [inhibitor, single point] | – |
| c1ccc2c(CNC3CCCCC3)c[nH]c2c1 | inactive | – |
| O=C(Oc1ccc2ccccc2c1)c1ccco1 | inconclusive [inhibitor, single point] | – |
| O=C1NC(=O)N(Cc2ccc(F)cc2)C(=O)/C1=C\c1ccc(N2CCCC2)cc1 | active: 0.251 µM | – |
| COc1ccc(N(CC(=O)Nc2cccc(SC)c2)S(C)(=O)=O)cc1Cl | active: 14.1 µM | – |
| Cc1cc(C(=O)OCC(=O)NC(=O)c2cccn2C)c2ccccc2n1 | inconclusive [inhibitor, partial curve] | – |
| Cc1cccnc1-n1c(-c2ccco2)nc2ccccc2c1=O | active: 28.2 µM | – |
| C[C@]12CCC(=O)C=C1CC[C@@H]1[C@@H]2CC[C@@]2(C)[C@H]1CC[C@]2(C)O | inactive | – |
| C=CCn1c(O)c(C(C)=Nc2ccc(N(CC)CC)cc2)c(=O)[nH]c1=O | inconclusive [inhibitor, partial curve, poor fit] | – |
| O=C(CF)NC(NC(=S)Nc1cccc([N+](=O)[O-])c1)C(Cl)(Cl)Cl (stereo not given) | inconclusive [inhibitor, single point] | – |
| O=C1NC(=O)N(Cc2ccccc2)C(=O)/C1=C\c1ccco1 | inconclusive [inhibitor, single point] | – |
| CSCCC(NS(=O)(=O)c1ccc2c(c1)oc(=O)n2C)C(=O)NC1CCCc2ccccc21 (stereo not given) | inconclusive [inhibitor, partial curve] | – |
| c1ccc(N2CC3(CCNCC3)C2)nc1 | inconclusive [inhibitor, single point] | – |
| CCS(=O)CCSP(=O)(OC)OC (stereo not given) | inactive | – |
| O=C(OC1CCN(CCCl)CC1)C(c1ccccc1)c1ccccc1 | active: 8.91 µM | – |
| Nc1ncnc2c1ncn2[C@@H]1O[C@H](COP(=O)(O)CP(=O)(O)OP(=O)(O)O)[C@@H](O)[C@H]1O | inactive | – |
| O=C(O)/C=C\C(=O)O | inactive | – |

| SMILES | Potency | activity, negative = inhibition |
| --- | --- | --- |
| CC(C)C[C@H]1C(=O)N2CCC[C@H]2[C@]2(O)O[C@](NC(=O)[C@@H]3C=C4c5cccc6[nH]c(Br)c(c56)C[C@H]4N(C)C3)(C(C)C)C(=O)N12 | inactive | – |
| CN1CCCC2(CCN(C(=O)Oc3ccccc3)CC2)C1 | inactive | – |
| Cc1ccc(N2C(=O)NC(=O)C3(Cc4ccccc4N4CCN(c5ccccc5)CC43)C2=O)cc1 (stereo not given) | active: 22.4 µM | – |
| COc1c2ccoc2cc2oc(=O)ccc12 | active: 20 µM | – |
| Nc1ccc(Oc2ccc(N)cc2)cc1 | inconclusive [inhibitor, single point] | – |
| C=C(C)Cn1c(-c2cccs2)n[nH]c1=S | inconclusive [inhibitor, partial curve] | – |
| c1ccc2c(c1)-c1cccc3cccc-2c13 | inconclusive [inhibitor, single point] | – |
| C[N+]1([O-])[C@@H]2CC[C@H]1CC(OC(=O)[C@@H](CO)c1ccccc1)C2 (stereo not given in full) | inactive | – |
| COc1ccc(OCC(=O)N2CCN(C3CCC(c4ccccc4)CC3)CC2)cc1 (stereo not given) | inconclusive [inhibitor, single point] | – |
| Cc1nc2cc(-c3ccccc3)nn2c(C)c1CCC(=O)N1CCC2(CC1)OCCO2 | inconclusive [inhibitor, single point] | – |
| CN(C)c1ccc(N=O)cc1 | active: 0.398 µM | – |
| CN1C(=O)C(=Cc2coc3ccccc3c2=O)C(=O)N(C)C1=O | active: 0.891 µM | – |
| C=C1C(O)C2OC3(CCC(/C=C/C(C)C4CC(C)=CC5(OC(CC(C)(O)C(=O)O)CCC5O)O4)O3)CCC2OC1C(O)CC(C)C1OC2(CCCCO2)CCC1C (stereo not given) | – | inactive: 3.44% [at 2.48 µM] |
| CCOC(=O)C1=C(N)Oc2ccccc2C12C(=O)N(CC(=O)OC)C(CC(=O)OC)=C2C(=O)OC (stereo not given) | active: 1.26 µM | – |
| Cc1cccn2c(=O)c3cc(C(=O)N4CCC5(CC4)OCCO5)n(C)c3nc12 | inconclusive [inhibitor, partial curve] | – |
| Cc1ccc(CC2C(=O)N(C)C(=O)N(C)C2=O)s1 | active: 20 µM | – |
| O=C(C1CCC(=O)N1C1CCCC1)N1CCC2(CC1)OCCO2 (stereo not given) | inactive | – |
| O=C(O)C(Cl)(Cl)Br | inactive | – |
| O=C(OC1Cc2c(O)cc(O)cc2OC1c1cc(O)c(O)c(O)c1)c1cc(O)c(O)c(O)c1 (stereo not given) | inconclusive [inhibitor, single point] | – |
| CCC(=NCCN1CCOCC1)c1c(O)n(-c2ccccc2C)c(=O)[nH]c1=O | inconclusive [inhibitor, single point] | – |
| S=C=S | inconclusive [inhibitor, single point] | – |
| CCc1ccccc1NC(=O)CSc1nnc([C@@H](N)Cc2c[nH]c3ccccc23)o1 | inconclusive [inhibitor, single point] | – |
| O=C(Cc1ccc(Cl)c(Cl)c1)N1CCCCC1CN1CCCC1 (stereo not given) | inactive | – |
| CC(C)(c1ccccc1)c1ccc(O)cc1 | inconclusive [inhibitor, single point] | – |
| CCOC(=O)N1CCN(C(=O)c2ccc3c(=O)n(CCC4=CCCCC4)c(=S)[nH]c3c2)CC1 | active: 7.94 µM | – |
